Data reported in the supplement of paper PMC11417369.
The list shows a part of the results.

The sequences below were run on PF3D7_0420300 AP2 domain 1 (GST-tagged) (assay: gcPBM binding intensity (ln(normalized median fluorescence intensity)); higher = stronger DNA binding).
Procedure, shortened: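 Using an Agilent 4 × 180k array, primer-extended double-stranded 36-bp intergenic genomic probes and negative controls were exposed for 1 h to GST-fused P. falciparum DNA-binding domains expressed in E. coli. Binding was carried out in 1× PBS with 1% milk, 0.2 mg/ml BSA, 0.5% salmon testes DNA and 0.03% Triton X-100, and protein was detected with Alexa488 anti-GST antibody and a 488 nm scan. Binding intensity is the highest Masliner-normalised natural-log median intensity across replicate spots of either probe orientation.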

Sequence	gcPBM binding intensity (ln)
TTTTCCTTTTTGGAATGTACACATATATATTAAATG [XGTACX_site4700]	9.02
AAGAATAATAACAAATGTACTTATATAAAGTATTAT [XGTACX_site2336]	9.3
TAATTAAATATTTTCCTACAATTAATAAGAAAAGGA [XGTACX_negctrl_site565]	8.93
TATTAAGAAGAAAATTCACACATTTGTACCTCTCTT [CACACA_site4822]	9.13
CAGCTCTTAAAAATTACACACATATACGCATATATA [CACACA_site3267]	9.54
GAAAATAGCTAAAATACACACAATTAAAAGTTATTA [CACACA_site7614]	9.56
TTACAAAAATGTGGTTGTACACAAACAAAAAAAATA [XGTACX_site8506]	9.4
TATAAATAGATATATACACACATGAAAATAAATAAA [CACACA_site7228]	9.78
TTTTTTTTTTTTTTTGCACACTTGATTTGAGCTTAT [CACACA_site4042]	8.93
TTTTTTTTTGTTTACACACCCAAATCACATACATAT [CACACA_site4052]	9.5
AAAATAAAAATACACATTTTTTTTTTTTTTTTTTTT [TGCATGCA_negctrl_site515]	9.32
TAAATAATTTATAAGTGTACTATTATTGCACGAATA [XGTACX_site7715]	9.1
AAAAAAAACAGACACACACACATAAATATATATAAA [CACACA_site148]	10
CATTAGGTCTTTTGTACATGCAAGTGTGTGCGTAAA [TGCATGCA_site255]	9.36
ATGATTTTTTCTGTATGTACATAAAAATAAAATTCT [XGTACX_site5698]	9
TTGTTTATTTTTTATTACTATAAAGATGTTATATAT [CACACA_negctrl_site1506]	9.16
TATATAAATATATATGTACACACATATACATGTTGA [CACACA_site9022]	9.47
ATAATATCTTTATGTGTGCACATATATATATATATA	9.65
AAAAAAAAAAAAAAATGTACAAATAGTAGTTACAGA [XGTACX_site2531]	9.39
AACATGTTAAAATAAACACACAGCTAAGGTTTTTTT [CACACA_site157]	9.42
ATAATATATGTATATCCACACACATATATATATATA [CACACA_site8471]	9.57
ATTTAAGATTTAATCACACACATATATATTATATAC [CACACA_site2907]	9.49
GCAAATGTGAAAACGTGTACACATTTTATTTAATTT [XGTACX_site8000]	9.19

Sequence	gcPBM binding intensity (ln)
TATTTGTAAATCGATACACACATATATATTAATATA [CACACA_site196]	9.47
AAATGTAGATATTATCGTACACATATATTTATATAT [XGTACX_site6326]	9.27
ACACATATGCATATATGTACATAATATATTAAACTT [XGTACX_site5975]	9.38
TAAAAAATAAATATATGTACGCAATAAATGTGTTAA [XGTACX_site4043]	9.28
AAAAAAAAAAGACACACACACACACTAATACATACA [CACACA_site6473]	10.2
ATACCTATTTGATGAGTGCATTATCCAATATATGTA	9.2
AAATATATATGTATATGTACTTATTTATTTAAAAGG [XGTACX_site4093]	9.05
TTTATTATATATAAAAGTACACATTGTAAGGAAACA [XGTACX_site8560]	9.37
AAAAGTGATGAGACAAGTACTAACATATTATTATTA [XGTACX_site1533]	9.33
TTTTCTGTATAAACTTGTACATATATTTCCTTGTTT [XGTACX_site5745]	9.44
ATGTTTTACAAAAACACACAAATGAATATAAACATA [CACACA_site6667]	9.33
AAATAAAATATCAATTAAAACAGAATTGAATTTTTA [CACACA_negctrl_site181]	9.02
ATATGTTCTACAAAAAAGATGTCGATTTATTTTCTT [CACACA_negctrl_site1179]	9.12
AAAACAAAATAGGGAACACACACATGTCAATATATA [CACACA_site8834]	10.1
TTTCAAACTGTTCTCACACACGAAATTAGAAATGAA [CACACA_site4509]	9.29
TTTTTTTTTTTTTGGTTCACACTGAAAAGAGAGATA [GTGCAC_negctrl_site439]	8.78
CAATCATGGTTTTACACACACATGCATGTGAAAATT [CACACA_site4870]	9.67
TTTTGTTATTTTGAAGTGCACTTTCCACTTAATATA	9.28
TCATGTTTTACAAAAACACACAAATGAATATAAACA [CACACA_site4775]	9.26
TATATACATAGACACCCACACACAAAAAAAAAAAAA [CACACA_site8186]	9.75
TCGAATTTGGAAAGAAGTACATGAAGCCAACATATG [XGTACX_site5222]	9.35
AATAAATAAAAATTATGTACATATATAAAAAATACA [XGTACX_site8581]	9.46
